From paper PMC3037348, “Epstein-Barr Virus Nuclear Antigen 3C Facilitates G1-S Transition by Stabilizing and Enhancing the Function of Cyclin D1” (PLoS Pathogens, 2011)
Results are given in words; binding and its absence hold for the method and conditions named. In cells and extracts the contact can be indirect. Some entries that bind do so weakly or less than the wild type.

Assays:
[1] = target: GST-Cyclin D1 (full-length) (UniProt P24385); test: pull-down; GST or GST-Cyclin D1 beads incubated with lysates of 50 million BJAB, BJAB_E3C#7 or BJAB_E3C#10 cells; binding buffer 1x PBS, 0.1% NP-40, 0.5 mM DTT, 10% glycerol; EBNA3C detected by western blot with A10; only the target purified
[2] = target: Cyclin D1, endogenous in B-cell lines (human (endogenous in LCL1, LCL2, BJAB)) (UniProt P24385); test: co-IP; 50 million B cells (LCL1, LCL2, BJAB_E3C#10; BJAB as control) lysed in RIPA buffer; IP with Cyclin D1 specific antibody; EBNA3C detected by western blot with A10
[3] = target: myc-tagged EBNA3C residues 1-365 (Epstein-Barr virus) (UniProt P03204); test: co-IP; 15 million HEK 293T cells co-transfected with tagged constructs, harvested at 36 h, lysed in RIPA buffer (1% NP-40, 10 mM Tris pH 8.0, 2 mM EDTA, 150 mM NaCl); IP with 1 µg myc or flag antibody overnight at 4°C; western blot
[4] = target: myc-tagged EBNA3C residues 366-620 (Epstein-Barr virus) (UniProt P03204); test: as above
[5] = target: myc-tagged full-length EBNA3C (residues 1-992) (Epstein-Barr virus) (UniProt P03204); test: as above
[6] = target: myc-tagged EBNA3C residues 621-992 (Epstein-Barr virus) (UniProt P03204); test: as above
[7] = target: GST-Cyclin D1 (full-length) (UniProt P24385); test: pull-down; GST or GST-Cyclin D1 proteins incubated overnight with 35S-labeled in vitro translated EBNA3C proteins precleared with GST-beads (1 h, 4°C); binding buffer 1x PBS, 0.1% NP-40, 0.5 mM DTT, 10% glycerol; SDS-PAGE and phosphoimager; only the target purified
[8] = target: GST-Cyclin D1 residues 40-170 (UniProt P24385); test: as above
[9] = target: GST-Cyclin D1 residues 171-260 (UniProt P24385); test: as above
[10] = target: GST-Cyclin D1 residues 241-295 (UniProt P24385); test: as above
[11] = target: flag-tagged EBNA3C (Epstein-Barr virus) (UniProt P03204); test: co-IP; 15 million HEK 293T cells co-transfected with tagged constructs, harvested at 36 h, lysed in RIPA buffer (1% NP-40, 10 mM Tris pH 8.0, 2 mM EDTA, 150 mM NaCl); IP with 1 µg myc or flag antibody overnight at 4°C; western blot

“EBNA3C stably expressed in BJAB cells (from UniProt P03204 1-992)” was tested, and the binding [1] was “binds” and the binding [2] was “binds”.

“EBNA3C, endogenous in EBV transformed lymphoblastoid cell lines (from UniProt P03204 1-992)” was tested, and the binding [2] was “binds”.

For “flag-tagged Cyclin D1 (from UniProt P24385 1-295)”, the binding [3] was “binds”, the binding [4] was “no binding” and the binding [5] was “binds”. The binding [6] was “no binding”.

For “flag-tagged Cyclin D2 (from UniProt P30279 1-289)”, the binding [5] was “binds”.

With “flag-tagged Cyclin D3 (from UniProt P30281 1-292)” the binding [5] was “binds”.

With “in vitro translated EBNA3C residues 1-100 (from UniProt P03204 1-100) (domain or fragment)” the binding [7] was “no binding”.

For “in vitro translated EBNA3C residues 1-129 (from UniProt P03204 1-129) (domain or fragment)”, the binding [7] was “no binding”.

In the case of “in vitro translated EBNA3C residues 1-159 (from UniProt P03204 1-159) (domain or fragment)”, the binding [7] is reported as “binds”.

For “in vitro translated EBNA3C residues 1-200 (from UniProt P03204 1-200) (domain or fragment)”, the binding [7] was “binds”.

For “in vitro translated full-length EBNA3C (from UniProt P03204 1-992)”, the binding [8] was “no binding”, the binding [9] was “binds” and the binding [10] was “no binding”. The binding [7] was “binds”.

In the case of “myc-tagged GSK-3β (from UniProt P49841 1-420) (enzyme)”, the binding [11] is reported as “binds”.
